# In PubChem BioAssay AID889 (National Center for Advancing Translational Sciences (NCATS), 2007):
# The campaign covered roughly 75,000 compounds. About 15 (0.02%) were called active. The shares of active, inactive and inconclusive entries below differ from those in the screen. Calls come from the whole dose curve; as a rule, active = well fitted inhibition curve with a large enough effect in the main read-out, with a control signal flat (not every such curve was filed as active); inconclusive = small, poorly fitted or top-dose-only effect, or a change in a side signal; inactive = flat fitted curve, though single readings scatter. Where the call is inconclusive, the potency comes from a doubtful curve fit. “Side channel” marks fits to a control or component signal instead of the main read-out.
# Molecular target: Caspase-7 (Homo sapiens) (UniProt P55210)
# Experiment: qHTS Assay for Allosteric/Competitive Inhibitors of Caspase-7; for activity change, negative = inhibition: % of control where 0% means no effect
# Conditions: recombinant caspase-7, Ac-DEVD-AFC fluorescence rate; activity change, negative = inhibition: at 57.5 µM (top of the series) unless noted
# Potency is the fitted concentration of half-maximal effect; tags give direction and shape of the fitted curve or compound fluorescence and quenching.
# Sequence of UniProt P55210 (P55210 whole entry, looked up): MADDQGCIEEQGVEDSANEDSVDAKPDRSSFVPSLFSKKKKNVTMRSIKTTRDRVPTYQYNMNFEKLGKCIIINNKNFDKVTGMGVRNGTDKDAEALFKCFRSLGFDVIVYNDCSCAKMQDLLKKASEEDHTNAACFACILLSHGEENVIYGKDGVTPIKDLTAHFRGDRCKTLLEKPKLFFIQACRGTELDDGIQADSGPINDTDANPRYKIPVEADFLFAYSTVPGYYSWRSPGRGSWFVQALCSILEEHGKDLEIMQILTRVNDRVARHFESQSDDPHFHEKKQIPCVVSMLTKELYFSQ
SMILES,Potency,"activity change, negative = inhibition"
C=Cc1c(C)c2cc3[nH]c(cc4nc(cc5nc(cc1[nH]2)C(C)=C5CCC(=O)O)C(CCC(=O)O)=C4C)c(C)c3C=C,inactive,
CCO[C@H](c1cc(OC)cc([N+](=O)[O-])c1OC)[C@H](C)/C=C\CC(=O)OC,,inactive: -0.385% [at 11.5 µM]
O=C(NC1CCCC1)c1cnn2c(C(F)(F)F)cc(-c3ccco3)nc12,"inconclusive: 25.1 µM [fluorescent, partial curve]",
CN(C)c1nc(-c2ccccc2)c2cnn(Cc3ccccc3)c2n1,"inconclusive: 25.1 µM [fluorescent, partial curve]",
c1ccc2c(N3CCCCC3)nc(N3CCCC3)nc2c1,inactive,
CC(C)CC(C(=O)Nc1oc(-c2ccco2)c(-c2ccco2)c1C#N)N1C(=O)c2ccccc2C1=O (configuration not stated),"inconclusive: 15.8 µM [inhibitor, partial curve]",
Cc1nc2cc(CO)ccc2s1,inactive,
CCOC(=O)Cn1c(CN2CCN(c3cccc(Cl)c3)CC2)nc2c1c(=O)[nH]c(=O)n2C,"inconclusive: 7.94 µM [fluorescent, side channel, partial curve]",
O=C(CSCc1cnn(-c2ccccc2)c1-n1cccc1)NCCN1CCOCC1,inactive,
CN(C)c1ncc2nc(-c3ccccc3)c(=O)n(C3CC3)c2n1,"inconclusive: 12.6 µM [fluorescent, side channel, partial curve]",
O=c1c(-c2ccccc2)nc2cnc(Nc3ccccc3)nc2n1Cc1cccs1,"inconclusive: 5.01 µM [fluorescent, side channel, partial curve]",
CC(NC(=O)c1ccco1)C(c1cccs1)N1CCN(c2ccccc2F)CC1 (configuration not stated),inactive,
CN1CCN(c2ncc3nc(-c4ccc(Cl)cc4)c(=O)n(-c4ccccc4)c3n2)CC1,"inconclusive: 10 µM [fluorescent, side channel, partial curve]",
CC(=O)Nc1c2c3c(cccc3n(C)c1=O)C(=O)c1ccccc1-2,"inconclusive: 5.01 µM [fluorescent, side channel, full curve]",
Cc1nc2cnc(N3CCNCC3)nc2n(C2CC2)c1=O,"inconclusive: 25.1 µM [fluorescent, partial curve]",
O=[n+]1cc(-c2ccccc2)n([O-])c2c1CCC2,inactive,
Cc1cccc(-n2ncc3c(NCc4cccs4)ncnc32)c1,inactive,
CCOC(=O)CNC(=O)CSc1nc(C)cc(C)c1C#N,inactive,
CCOC(=O)c1c(NC(=O)C(F)(OC)C(F)(F)F)sc2c1CCN(C)C2 (configuration not stated),"inconclusive: 15.8 µM [fluorescent, partial curve]",
Cn1cc(-c2nc3cnc(N4CCNCC4)nc3n(-c3ccccc3)c2=O)c2ccccc21,"inconclusive: 25.1 µM [inhibitor, partial curve]",
CCOC(=O)c1sc2nccc(N(C)C)c2c1N=CN(C)C,"inconclusive: 31.6 µM [inhibitor, single point]",
CN1CCc2c(sc(/N=C/c3cccs3)c2C(N)=O)C1,"inconclusive: 12.6 µM [fluorescent, side channel, partial curve]",
Cc1ccc(-n2c(O)c(/C=N/n3cnnc3)c3ccccc3c2=O)cc1,"inconclusive: 15.8 µM [fluorescent, side channel, partial curve]",

SMILES,Potency,"activity change, negative = inhibition"
CCc1cc2c(=O)c(Oc3ccccc3)c(C)oc2cc1O,"inconclusive: 25.1 µM [inhibitor, single point]",
COc1ccc(-c2csc(NCc3ccco3)n2)cc1C,inactive,
CCCCCn1c(=NC(=O)c2ccco2)c(C(=O)OCC)cc2c(=O)n3ccccc3nc21,"inconclusive: 7.94 µM [fluorescent, side channel, partial curve]",
O=c1c(-c2cc(F)cc(F)c2)nc2cnc(N3CCOCC3)nc2n1-c1ccccc1,"inconclusive: 3.16 µM [fluorescent, side channel, full curve]",
O=C(O)c1ccc2[nH]c3c(c2c1)CSCC3,inactive,
O=c1cnc2cnc(Nc3ccccc3)nc2n1Cc1ccc(F)cc1,"inconclusive: 25.1 µM [inhibitor, single point]",
N#Cc1cccc(NC(=O)N2CCC(c3nc4c(nnn4Cc4cccc(Cl)c4)c(=O)[nH]3)CC2)c1,"inconclusive: 15.8 µM [inhibitor, partial curve]",
C=CCn1c(N)c(C(=O)OCCC)c2nc3ccccc3nc21,"inconclusive: 12.6 µM [fluorescent, side channel, partial curve]",
Cc1ccc(NC(=O)N2CCC(c3nc4c(nnn4Cc4cccc(Cl)c4)c(=O)[nH]3)CC2)cc1,"inconclusive: 31.6 µM [inhibitor, partial curve]",
Cc1cc2c(c(=O)n1Cc1cccnc1)C(Cc1ccccc1)C(C#N)=C(N)O2 (configuration not stated),"inconclusive: 25.1 µM [fluorescent, partial curve]",
Cc1ccc2nc(N3CCN(Cc4nnnn4Cc4ccccc4)CC3)c(C#N)cc2c1,"inconclusive: 25.1 µM [fluorescent, single point]",
CC(C)Sc1nc(NCc2ccco2)c2c3c(sc2n1)COC(C)(C)C3,inactive,
COC(=O)c1ccc(CSc2nnc(NCc3ccccc3)s2)o1,inactive,
CC(C)CCCC(C)C1CCC2C3CC=C4CC(O)CC[C@@]4(C)C3CC[C@@]12C (some centres not stated),inactive,
CN(C)c1ncc2nc(-c3cccs3)c(=O)n(-c3ccccc3)c2n1,"inconclusive: 1.26 µM [fluorescent, side channel, full curve]",
COc1cc2cc(CN(Cc3nnnn3Cc3ccco3)C3CCCCC3)c(=O)[nH]c2cc1OC,"inconclusive: 7.94 µM [fluorescent, side channel, partial curve]",
O=C(NCc1ccco1)c1cc2nc(-c3ccc4c(c3)OCO4)cc(C(F)(F)F)n2n1,"inconclusive: 31.6 µM [fluorescent, single point]",
COc1cccc(-c2cncnc2NCc2ccccc2)c1,inactive,
N#CC1=C(N)Oc2c(ccc3cccnc23)C1c1cccnc1 (configuration not stated),"inconclusive: 31.6 µM [inhibitor, single point]",
O=C(O)c1cc2cc(Cl)cc(Cl)c2oc1=O,"inconclusive: 31.6 µM [inhibitor, single point]",
CC1(C)S[C@@H]2[C@H](C(=O)O)N=C(Cc3ccccc3)N2[C@H]1C(=O)O,,inactive: 1.08% [at 11.5 µM]
COc1ccc(Oc2ncc3nc(-c4cc(F)cc(F)c4)c(=O)n(C4CC4)c3n2)cc1,"inconclusive: 31.6 µM [inhibitor, single point]",
c1coc(-c2nc(-c3ccco3)c(-c3ccco3)nc2-c2ccco2)c1,"inconclusive: 15.8 µM [inhibitor, partial curve]",

SMILES,Potency,"activity change, negative = inhibition"
O=C(Nc1nc2n(n1)C(c1ccccc1)C=C(c1ccccc1)N2)c1ccco1 (configuration not stated),"inconclusive: 12.6 µM [fluorescent, partial curve]",
O=C(O)C1CC(=O)N(CCC23CC4CC(CC(C4)C2)C3)C(=Nc2ccccc2)S1 (configuration not stated),"inconclusive: 31.6 µM [inhibitor, single point]",
COc1ccc(C(=O)N2CCN(c3nc4cc(C)ccc4cc3C#N)CC2)c(OC)c1,"inconclusive: 31.6 µM [inhibitor, single point]",
CCCn1c2ccccc2c2nc3ccccc3nc21,"inconclusive: 31.6 µM [fluorescent, single point]",
CCCCn1c(SCC(=O)NCc2ccco2)nc2ccc(N3CCOCC3)cc2c1=O,"inconclusive: 25.1 µM [inhibitor, single point]",
Cc1nn2cc(-c3ccc(Cl)cc3)nc2s1,inactive,
Cc1cnc(CNc2nc(-c3ccccc3C(F)(F)F)nc3ccccc23)cn1,inactive,
Cc1cc2c3nonc3ccc2n1-c1ccccc1,"inconclusive: 25.1 µM [fluorescent, partial curve]",
Cn1c(=O)c(-c2cccc(C#N)c2)nc2cnc(Oc3ccccc3)nc21,"inconclusive: 31.6 µM [inhibitor, single point]",
CC(=O)n1nc(-c2ccco2)nc1SCc1ccccc1,"inconclusive: 31.6 µM [inhibitor, single point]",
CCNc1ncc2nc(-c3ccc(F)cc3)c(=O)n(CCOC)c2n1,"inconclusive: 1.58 µM [fluorescent, side channel, full curve]",
c1coc(CNc2ncnc3sc4c(c23)CCCCC4)c1,,inactive: 1.9% [at 0.00368 µM]
O=c1c(-c2ccccc2)nc2cnc(N3CCOCC3)nc2n1CCc1ccccc1,"inconclusive: 3.16 µM [fluorescent, full curve]",
Cc1ccc(-n2nc(C)c3c2OC(N)=C(C#N)C3c2ccoc2)cc1 (configuration not stated),inactive,
c1cnc(N2CCN(c3ncnc4c3oc3ccccc34)CC2)nc1,inactive,
O=c1c(-c2ccc(Cl)cc2)nc2cnc(N3CCNCC3)nc2n1CCc1ccccc1,"inconclusive: 12.6 µM [fluorescent, side channel, partial curve]",
N#CC1=C(SCC(=O)c2cc3ccccc3oc2=O)NC(=O)C(C#N)C12CCCC2 (configuration not stated),inactive,
Cc1ccc(C(=O)c2cn[nH]c2-c2cc(Cl)ccc2O)cc1,inactive,
N#CC1=C(N)Oc2cc(N)ccc2C1C1CC=CCC1 (configuration not stated),"inconclusive: 31.6 µM [fluorescent, single point]",
Cc1ccc(CNC(=O)[C@H](C)[C@H]2C[C@]2(C)[C@H](NC(=O)OCc2ccccc2)c2ccccc2)c(F)c1F,inactive,
S=c1ccss1,inactive,
